Results on 1 molecule are retold here after article PMC11484706, “Phosphorylation-driven epichaperome assembly is a regulator of cellular adaptability and proliferation” (Nature Communications, 2024).

This experiment has as its target T1, mCherry-HSP90β-S226E, S255E mutant (in mouse ESCs) (UniProt P08238, S226E | S255E).
T1 construct: HSP90β; Expressed beside the endogenous wild-type HSP90; also called mCherry-HSP90β-EE; EE mutant; source: mouse ESCs, transfected (Lipofectamine 3000), in lysate; not shown: mCherry, N-terminal, kept
T1 sequence (P08238 whole entry S226E/S255E): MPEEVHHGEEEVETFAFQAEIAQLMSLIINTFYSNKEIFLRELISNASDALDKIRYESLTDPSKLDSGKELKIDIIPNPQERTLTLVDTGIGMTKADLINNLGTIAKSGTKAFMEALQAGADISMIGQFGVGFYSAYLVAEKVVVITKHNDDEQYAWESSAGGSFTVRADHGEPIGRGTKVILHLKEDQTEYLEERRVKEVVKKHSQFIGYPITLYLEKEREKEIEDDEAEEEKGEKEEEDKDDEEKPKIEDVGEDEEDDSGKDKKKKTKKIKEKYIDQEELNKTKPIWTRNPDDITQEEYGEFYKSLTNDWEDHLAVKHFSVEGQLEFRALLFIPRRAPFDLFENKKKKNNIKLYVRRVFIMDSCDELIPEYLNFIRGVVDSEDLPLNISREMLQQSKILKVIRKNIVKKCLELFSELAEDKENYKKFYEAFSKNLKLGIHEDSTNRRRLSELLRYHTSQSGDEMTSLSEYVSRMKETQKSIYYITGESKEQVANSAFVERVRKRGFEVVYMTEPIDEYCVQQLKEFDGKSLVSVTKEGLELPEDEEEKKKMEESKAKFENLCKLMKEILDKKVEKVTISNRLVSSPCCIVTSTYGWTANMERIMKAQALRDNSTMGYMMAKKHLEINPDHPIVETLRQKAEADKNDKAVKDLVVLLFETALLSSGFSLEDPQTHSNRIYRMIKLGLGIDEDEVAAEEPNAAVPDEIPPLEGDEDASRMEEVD
The experiment in a line: affinity purification with mass spectrometry; RFP Selector resin with lysates of SILAC-labelled mouse ESCs expressing mCherry-HSP90β EE or AA, 4 °C, 90 min; heavy and light samples immunoprecipitated separately, then combined, SDS-PAGE, quantitative MS. The conditions noted are these: partners not purified.

B1: Oct4 (natural protein)
chain: not shown
notes: transcription factor Oct4, mouse; source: endogenous, mouse ESC lysate
For the molecule B1, the “fold EE:AA (SILAC ratio of co-purified Oct4)” value came out at 1.4 fold.
